PubChem BioAssay AID1460 (National Center for Advancing Translational Sciences (NCATS), 2008)
Values joined by “and” are separate entries in the source; they are usually repeats but may differ in a detail not shown here. Identical values can stand only once. Hit rate of the full screen: of about 270,000 compounds, about 5,800 (2.1%) were called active. Inconclusive results, whose numbers are uncertain, are shown with a selection of clear calls. The call rests on the fitted dose curve; in most records, active means well fitted inhibition curve with a large enough effect; inconclusive means small, poorly fitted or top-dose-only effect; inactive means flat fitted curve, though single readings scatter. Where the call is inconclusive, the potency comes from a doubtful curve fit. The source holds several records for some structures; these can differ, active in one and inactive in another.

Each molecule was assayed against Microtubule-associated protein tau (Homo sapiens) (UniProt P10636) (assay: qHTS for Inhibitors of Tau Fibril Formation, Thioflavin T Binding). Settings: recombinant tau K18 P301L (four-repeat tau fragment), heparin-induced fibrillization, ThT fluorescence; series mostly up to 57.4 µM; activity, negative = inhibition: at the top concentration.
Summary of the method: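 Heparin-induced (20 uM) aggregation of recombinant human K18 P301L tau, 15 uM unlabeled with 0.24 uM labeled, pH 7 acetate buffer, 6 hr at 37 C with compound. Fibrils quantified by 30 uM ThT fluorescence after 1 hr ambient incubation.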
Further: nearly all actives have a fitted effect of over 55% in size.
On the % scale 0 is the no-effect control and ±100 the full control effect; potency means the concentration at half of the fitted maximal effect; tags describe the fitted curve by direction and shape.

UniProt P10636, sequence (P10636 whole entry, looked up, the tested form may be a part): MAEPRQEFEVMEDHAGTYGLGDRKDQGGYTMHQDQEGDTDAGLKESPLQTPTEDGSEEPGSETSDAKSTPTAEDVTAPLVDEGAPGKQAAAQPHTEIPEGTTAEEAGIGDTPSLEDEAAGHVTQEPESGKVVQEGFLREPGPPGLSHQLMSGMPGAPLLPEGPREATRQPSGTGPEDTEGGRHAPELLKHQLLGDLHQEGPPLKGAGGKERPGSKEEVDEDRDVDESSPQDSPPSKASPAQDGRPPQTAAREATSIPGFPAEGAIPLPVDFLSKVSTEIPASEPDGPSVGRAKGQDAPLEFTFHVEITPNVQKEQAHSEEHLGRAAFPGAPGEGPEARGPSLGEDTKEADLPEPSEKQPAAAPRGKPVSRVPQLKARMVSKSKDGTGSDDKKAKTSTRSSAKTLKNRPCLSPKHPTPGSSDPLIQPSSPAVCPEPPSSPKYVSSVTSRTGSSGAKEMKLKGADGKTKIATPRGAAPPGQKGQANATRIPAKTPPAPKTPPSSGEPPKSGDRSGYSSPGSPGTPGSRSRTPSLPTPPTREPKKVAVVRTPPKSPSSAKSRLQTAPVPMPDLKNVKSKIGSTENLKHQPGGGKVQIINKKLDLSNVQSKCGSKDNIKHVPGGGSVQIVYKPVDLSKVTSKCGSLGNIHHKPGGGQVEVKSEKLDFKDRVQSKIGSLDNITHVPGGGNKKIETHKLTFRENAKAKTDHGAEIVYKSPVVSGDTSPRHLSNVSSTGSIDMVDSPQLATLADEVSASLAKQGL

Compound	Potency	activity, negative = inhibition
N#CC(C#N)=Cc1cc(O)c(O)c(O)c1	active: 12.6 µM	–
CCCCCCCCCCCCCCCC[N+](C)(C)C	inconclusive: 28.2 µM [inhibitor, partial curve, poor fit]	–
COc1cccc(CN2CCc3nc(N4CCN(c5ncccn5)CC4)ncc3C2)c1	inconclusive: 28.2 µM [inhibitor, partial curve, poor fit]	–
Cn1c(O)c(/C=N/c2ncccn2)c(=O)n(C)c1=O	inconclusive: 3.98 µM [inhibitor, full curve]	–
Cc1ccc2cc(C=C(C#N)C#N)c(Cl)nc2c1	inconclusive: 12.6 µM [inhibitor, partial curve]	–
CC(C)(O)C1O[C@H]2CC[C@@]3(C)[C@@](O)(CC[C@H]4Cc5c([nH]c6ccccc56)[C@@]43C)C2=CC1=O (stereo partly drawn)	inconclusive: 31.6 µM [inhibitor, single point] and inconclusive: 22.4 µM [inhibitor, partial curve] and inconclusive: 25.1 µM [inhibitor, partial curve]	–
Cc1cccc(-n2c(/C=C\c3cccc(Br)c3)nc3ccccc3c2=O)c1	–	inactive: 2.98%
CN1C(=O)N(C)C(=O)C2(Cc3ccccc3N3CCCC32)C1=O (stereo not drawn)	inconclusive: 25.1 µM [inhibitor, partial curve, poor fit]	–
C[C@@H]1O[C@@H](O[C@H]2CC[C@]3(C=O)C4CC[C@]5(C)[C@@H](C6=CC(=O)OC6)CC[C@]5(O)[C@@H]4CC[C@]3(O)C2)[C@H](O)[C@H](O)[C@H]1O (stereo partly drawn)	–	inactive: -4.66%
COc1ccc(OC)c(N=Cc2c(O)n(Cc3ccccc3)c(=S)[nH]c2=O)c1	–	inactive: -14.2%
Cc1cccc(-n2c(C)nc3ccccc3c2=O)n1	–	inactive: -3.92%
Cc1ccnc(-n2c(C)cc(/C=C3\C(=O)NC(=S)N(C)C3=O)c2C)c1	inconclusive: 14.1 µM [inhibitor, partial curve]	–
CCOc1ccc(-c2nc3ccc(-c4nc5ccc(N6CCN(C)CC6)cc5[nH]4)cc3[nH]2)cc1	active: 2.82 µM	–
O=C1NCN(c2ccccc2)C12CCN(CCCOc1ccc(F)cc1)CC2	inconclusive: 5.01 µM [inhibitor, single point]	–
COc1ccc(C(=O)Nc2ccc(-c3nc4ccccc4s3)cc2C)cc1Cl	inconclusive: 1.58 µM [inhibitor, partial curve, poor fit]	–
O=[N+]([O-])c1ccc(NCCCN2CCOCC2)c2ncccc12	inconclusive: 20 µM [inhibitor, partial curve]	–
O=CC(Br)P(=O)(N1CCOCC1)N1CCOCC1 (stereo not drawn)	active: 10 µM	–
O=C1C2C3CCC(O3)C2C(=O)N1CCO (stereo not drawn)	–	inactive: 2.33%
Cc1ccc(N2C(=O)NC(=O)/C(=C\c3cc(C)n(-c4sc5c(c4C#N)CCCC5)c3C)C2=O)cc1	inconclusive: 15.8 µM [inhibitor, partial curve]	–
CN(C)c1ccc2c(c1)N=C(c1ccco1)OP2(=S)N1CCOCC1 (stereo not drawn)	inconclusive: 25.1 µM [inhibitor, partial curve]	–
CC(C)COC(=O)n1c(=O)oc2cc(S(=O)(=O)N3CCCCC3)ccc21	inconclusive: 39.8 µM [inhibitor, partial curve]	–

Compound	Potency	activity, negative = inhibition
CC[C@@]1(O)CC(O)c2c(cc3c(c2O)C(=O)c2c(O)ccc(O)c2C3=O)C1C(=O)OC (stereo partly drawn)	active: 7.94 µM	–
O=C1NC(=O)C(=Cc2ccc(Oc3ccc([N+](=O)[O-])cc3)cc2)C(=O)N1	active: 12.6 µM	–
O=C(CN1CCN(Cc2cccc(Cl)c2)C1=O)N1CCC2(CC1)OCCO2	–	inactive: -12.4%
CC1(C)C(O)CC(O)[C@]2(C)C1CC(=O)[C@]1(C)C2CC[C@@]2(C)C(c3ccoc3)OC(=O)C3OC321 (stereo partly drawn)	–	inactive: -7.77%
N#CC(C#N)=NNc1cccc(Cl)c1	active: 4.47 µM	–
CC1=NN(c2ccccc2)C(=O)/C1=C/c1c(O)[nH]c(=S)[nH]c1=O	inconclusive: 7.94 µM [inhibitor, partial curve]	–
COC(=O)[C@@H]1C[C@@]1(C)[C@@H](NP(=O)(c1ccccc1)c1ccccc1)c1ccccc1	inconclusive: 17.8 µM [inhibitor, single point]	–
Cc1ccc(/C=C2\C(=O)NC(=S)N(c3ccccc3F)C2=O)s1	active: 17.8 µM	–
O=[N+]([O-])c1cc([As](=O)(O)c2ccc(O)c([N+](=O)[O-])c2)ccc1O	inconclusive: 35.5 µM [inhibitor, single point]	–
C[CH2][Hg][S]c1ccccc1C(=O)O	inconclusive: 1.12 µM [inhibitor, full curve]	–
O=C1NC(=S)N(Cc2ccco2)C(=O)/C1=C\c1cccs1	active: 12.6 µM	–
Cc1ccc(S(=O)(=O)Nc2cc(C(=O)N3CCC4(CC3)OCCO4)ccc2N2CCCCC2)cc1	inconclusive: 39.8 µM [inhibitor, single point]	–
Cc1oc2cc3oc(=O)c(CCC(=O)N4CCCCC4)c(C)c3cc2c1C	inconclusive: 4.47 µM [inhibitor, partial curve]	–
COC(=O)C1=C(N)OC(C)=C(C(C)=O)C12C(=O)N(C)c1ccccc12 (stereo not drawn)	inconclusive: 25.1 µM [inhibitor, single point]	–
CN1/C(=C\C=C\C2=[N+](C)c3ccc4ccccc4c3C2(C)C)C(C)(C)c2ccccc21	active: 1.41 µM	–
CCN(CC)C(=O)N[C@H]1C[C@@H]2c3cccc4[nH]cc(c34)C[C@H]2N(C)C1	–	inactive: -14.1%
O=C(O)CCC(=O)NCCC1=c2ccccc2=N/C1=C\c1c(O)n(Cc2ccc(F)cc2)c(=S)[nH]c1=O	inconclusive: 28.2 µM [inhibitor, partial curve]	–
COc1ccccc1N1C(=O)NC(=O)/C(=C/c2ccc3c(c2)Cc2ccccc2-3)C1=O	inconclusive: 10 µM [inhibitor, partial curve]	–
COc1ccc(-c2cc(=NCCC(=O)O)c3cc(C)ccc3o2)cc1	inconclusive: 11.2 µM [inhibitor, partial curve]	–
COc1ccc(C(=O)O/N=C(/C(N)=O)P(=O)(OC(C)C)OC(C)C)cc1	inconclusive: 20 µM [inhibitor, partial curve, poor fit]	–
COc1cc2c(cc1/C=C/[N+](=O)[O-])OCO2	inconclusive: 20 µM [inhibitor, partial curve]	–

Compound	Potency	activity, negative = inhibition
COc1ccccc1OCC#CCN1CCCCCC1	–	inactive: -1.81%
CCOC(=O)c1c(/N=C/C2C(=O)NC(=O)NC2=O)sc2c1CCC2	inconclusive: 15.8 µM [inhibitor, partial curve]	–
CC[C@@H](CO)NC(=O)[C@@H]1C=C2c3cccc4c3c(cn4C)C[C@H]2N(C)C1	active: 25.1 µM	–
CC(=O)N1CC[N+](C)(C)CC1	inactive	–
C/C(=N\OC(=O)NC(C)C)c1sc(-c2ccc(Cl)cc2)nc1C	inconclusive: 20 µM [inhibitor, partial curve]	–
O=C1C2CCCN2C(c2ccncc2)N1c1ccc(Cl)c(Cl)c1 (stereo not drawn)	inconclusive: 28.2 µM [inhibitor, single point]	–
CCCNC(=O)c1c(N)n(Cc2ccco2)c2nc3ccccc3nc12	inconclusive: 25.1 µM [inhibitor, partial curve]	–
Cc1c(NC(NC(=O)CF)C(Cl)(Cl)Cl)c(=O)n(-c2ccccc2)n1C (stereo not drawn)	inconclusive: 28.2 µM [inhibitor, partial curve, poor fit]	–
COc1ccccc1CN1CCN(C(=O)COc2cccc(C)c2)CC1	inactive and inconclusive: 25.1 µM [inhibitor, partial curve]	–
Cc1[nH]n(-c2ccccc2)c(=O)c1C(c1cccc([N+](=O)[O-])c1O)c1c(C)[nH]n(-c2ccccc2)c1=O	active: 7.94 µM	–
O=c1[nH]c(=S)[nH]c(O)c1N=Nc1ccc(OC(F)F)cc1	active: 3.98 µM	–
O=C(O)c1ccc2c(c1)C1C(Cl)C(Sc3ccccc3[N+](=O)[O-])CC1C(c1cccc([N+](=O)[O-])c1)N2 (stereo not drawn)	inconclusive: 12.6 µM [inhibitor, partial curve]	–
COc1cc(C2Nc3c(C)cc(C)cc3-c3cc(C)nn32)cc(OC)c1O (stereo not drawn)	inconclusive: 3.16 µM [inhibitor, full curve]	–
CC(C)[C@@]1(NC(=O)[C@@H]2C=C3c4cccc5[nH]cc(c45)C[C@H]3N(C)C2)O[C@@]2(O)[C@@H]3CCCN3C(=O)[C@H](Cc3ccccc3)N2C1=O	active: 12.6 µM	–
CO/C1=C\C(C)=C\[C@@H](C)[C@@H](O)[C@H](C)C/C(C)=C/C=C/[C@H](OC)[C@H]([C@@H](C)[C@@H](O)[C@H](C)[C@H]2C[C@@H](O)[C@H](C)[C@@H](C(C)C)O2)OC1=O	–	inactive: -4.5%
C=CCn1c(O)c(C=NCCN2CCNCC2)c(=O)[nH]c1=O	inconclusive: 44.7 µM [inhibitor, single point]	–
CCOc1ccccc1OCC(=O)Nc1ccc(Cl)cc1C(=O)c1ccccc1	inconclusive: 20 µM [inhibitor, partial curve]	–
CC1(C)C(c2ccccc2)=NC(c2cccnc2)=[N+]1[O-]	inconclusive: 20 µM [inhibitor, single point]	–
COc1ccc(C(=O)Nc2ccc(S(=O)(=O)N(Cc3ccccc3)c3ccccc3)cc2)cc1	inconclusive: 14.1 µM [activator, partial curve, poor fit]	–
Cc1ccc2c(c1)CC1(CN2C)C(=O)NC(=O)N(c2cccc(C)c2C)C1=O (stereo not drawn)	inconclusive: 14.1 µM [inhibitor, partial curve]	–
Cc1cc(C(=O)Nc2ccc3c(c2)OCCO3)nn1C(C)(C)C	inconclusive: 7.08 µM [inhibitor, partial curve]	–
